Data published in PubChem BioAssay AID485344 (National Center for Advancing Translational Sciences (NCATS), 2010).
In all, about 340,000 compounds went through this assay and about 6,900 (2%) were called active. Cut-off read from the data, not from the text of the source: active = inhibition above about 30%; inactive = below that, where a call was filed. The list shows a part of the results, in another mix than the full data. Entries without a call were filed so in the source.

Each compound was assayed against D(2) dopamine receptor (Homo sapiens) (UniProt P14416) (assay: HTS Assay for Allosteric Antagonists of the Human D2 Dopamine Receptor: Primary Screen for Antagonists). Details: HEK293 TREx D2 cells, calcium flux, dopamine EC80; at 10 µM; stronger effect = higher value.
Method in brief: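 Read-out: kinetic calcium fluorescence (1 cycle/s) in inducible HEK293 T-REx D2 cells after an EC80 dopamine addition that followed 180 s compound preincubation. Loss of the dopamine response indicates antagonism.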
Note: 0% is about no effect.

Sequence of UniProt P14416 (P14416 whole entry, looked up): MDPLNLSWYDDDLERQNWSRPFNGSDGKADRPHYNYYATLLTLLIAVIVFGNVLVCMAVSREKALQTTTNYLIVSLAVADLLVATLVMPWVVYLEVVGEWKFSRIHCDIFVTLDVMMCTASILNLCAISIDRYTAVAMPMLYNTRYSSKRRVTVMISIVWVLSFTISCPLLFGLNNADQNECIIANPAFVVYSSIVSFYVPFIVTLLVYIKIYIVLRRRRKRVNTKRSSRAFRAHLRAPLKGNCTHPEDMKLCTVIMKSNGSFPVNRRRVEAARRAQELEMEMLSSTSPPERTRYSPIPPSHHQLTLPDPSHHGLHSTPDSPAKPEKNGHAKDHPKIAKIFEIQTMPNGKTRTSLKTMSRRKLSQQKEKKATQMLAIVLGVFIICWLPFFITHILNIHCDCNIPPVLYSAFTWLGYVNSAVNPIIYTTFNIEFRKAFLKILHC

| Structure (SMILES) | inhibition |
| --- | --- |
| CCOC(=O)c1cccc(NC(=O)c2cc3c(Cl)nc4ccc(C)cc4c3s2)c1 | 11.6% |
| CCc1ccc(NS(=O)(=O)c2ccc3[nH]cc(C(=O)NC4CCCC4)c(=O)c3c2)cc1 | -16.8% |
| COc1ccc(-n2cc(-c3ccccc3)c3c(SC(C)C(C)=O)ncnc32)cc1 (stereo not drawn) | 9.09% |
| CCc1ccc(NC(=O)c2cc3ccccn3n2)cc1 | -9.96% |
| COc1ccc(-c2nnc(Nc3ccc(OCC(N)=O)cc3)c3ccccc23)cc1 | 1.45% |
| CCc1ccccc1OCCCCN1CCCCC1 | active: 89.4% |
| O=C(CSc1nc(=O)[nH]c2c1CCCC2)Nc1cc(C(F)(F)F)ccc1Cl | 2.32% |
| Cc1cc(C)c2c(CC(=O)Nc3nnc(C(C)C)s3)coc2c1 | 5% |
| O=C(CCN1CCN(c2ccccc2)CC1)Nc1ccccc1F | active: 71.4% |
| CCOC(=O)c1ccccc1NC(=O)CSc1ccc(-c2sc(-c3ccccc3)nc2C)nn1 | -3.45% |
| COc1ccc(OC)c(-c2nc(Nc3ccccc3C)sc2CC(=O)O)c1 | -4.58% |
| COc1ccc(C2C(C(=O)Nc3ccccc3)=C(C)Nc3nc(-c4ccccc4)nn32)cc1OC (stereo not drawn) | 0.905% |
| Cc1cc(C)n(-c2nc3ccccc3nc2Nc2cccc(C(F)(F)F)c2)n1 | 3.94% |
| O=C1CCSC2(C(=O)N(Cc3ccc(F)cc3)c3ccccc32)N1c1ccccc1 (stereo not drawn) | -6.84% |
| CCOc1ccc(Nc2oc(/C=C/c3ccc(F)cc3)nc2C#N)cc1 | 5.67% |
| COc1ccc(CNc2nc3c(S(=O)(=O)c4ccccc4)nnn3c3ccc(Cl)cc23)cc1 | -14.9% |
| Cc1ccc(NC(=O)C(=O)NCC(c2cccnc2)N2CCN(C)CC2)cc1C (stereo not drawn) | 0.903% |
| Cc1ccc(OCC(=O)Nc2ccc(C(=O)OCc3cc(=O)n4nc(C5CC5)sc4n3)cc2)cc1 | 23.3% |
| COc1ccc(NC(=O)c2oc3c(c2C)-c2nn(Cc4c(F)cccc4Cl)cc2CC3)c(OC)c1 | -20.5% |
| COc1cccc2cc(-c3nc4sc(C(=O)Nc5ccc(F)cc5F)c(C)c4c(=O)[nH]3)c(=O)oc12 | 9.55% |
| CCOC(=O)c1ccccc1NC(=O)N1CCN2CCCCC2C1 (stereo not drawn) | 2.16% |

| Structure (SMILES) | inhibition |
| --- | --- |
| COCc1cc(C)nc2sc3c(=O)n(-c4cc(C)ccc4C)nnc3c12 | -19.5% |
| Cc1ccc(C)c(N2CCN(c3ncnc4onc(C)c34)CC2)c1 | 8.78% |
| COc1ccccc1CCNC(=O)Cc1c(C)c2ccc(O)cc2oc1=O | 13.7% |
| COc1ccc(CCN(C)C2CCCN(C(=O)c3sccc3C)C2)cc1OC (stereo not drawn) | active: 57% |
| CCOC(=O)c1cc(OC(=O)c2cccc(C)c2)n(-c2ccccc2)n1 | 11.6% |
| COCc1cc(C)nc2sc3c(c12)NC(c1ccc(NC(C)=O)cc1)N(c1ccc(C)cc1)C3=O (stereo not drawn) | 7.29% |
| COc1cccc(CNc2ncnc3onc(-c4ccc(F)cc4)c23)c1 | -3.37% |
| COc1ccc(-c2cc(C(C)=O)c(C)n2CCC(=O)Nc2cc(C)ccc2OC)cc1 | -5.72% |
| O=c1c2ccccc2n(Cc2cccc(Cl)c2)c(=O)n1CCc1ccccc1 | 5.99% |
| CCN(c1ccccc1)c1nnc(NC(=O)Nc2cccc(C(F)(F)F)c2)s1 | 3.37% |
| CC(=O)NCCc1nc2ccccc2n1CCCCOc1ccc(Cl)cc1 | -8.62% |
| O=C(COc1ccccc1)OCC(=O)c1ccc(S(=O)(=O)N2CCCCC2)cc1 | active: 30.9% |
| Cc1cc(F)ccc1Nc1nc2ccccc2n2nnnc12 | 10.2% |
| O=C(CSc1nc2cc3ccccc3cc2[nH]1)Nc1cccc(C(F)(F)F)c1 | 10.2% |
| CC(C)CCNC(=O)C(=O)Nc1c2c(nn1-c1ccccc1)CS(=O)(=O)C2 | 1.25% |
| N#Cc1c(NC(=O)/C=C/c2ccco2)sc2c1CCCC2 | active: 57.3% |
| COc1ccccc1N1CCN(S(=O)(=O)c2ccc(-c3cc(C(F)(F)F)on3)s2)CC1 | 2.34% |
| CNS(=O)(=O)c1cn(CC(=O)Nc2ccc(OC)c(Cl)c2)cc1S(=O)(=O)NC | 5.67% |
| Cc1cc(N2CCCCC2)nc2ccc(NC(=O)c3ccc(F)cc3)cc12 | 0.437% |
| COc1cccc(N2C(=O)C(CC(=O)Nc3cccc(F)c3)N(C(C)C)C2=O)c1 (stereo not drawn) | -12.3% |
| Cc1cccc(CC(=O)NC2CC(=O)N(c3cccc(F)c3)C2)c1 (stereo not drawn) | -8.33% |

| Structure (SMILES) | inhibition |
| --- | --- |
| CCOC(=O)c1c(NC(=O)CSc2cn(CCNC(=O)c3ccc(OCC)cc3)c3ccccc23)sc2c1CCCC2 | 7.84% |
| COc1ccc(OC)c(NC(=O)C2CCN(S(=O)(=O)c3ccc(C)cc3)CC2)c1 | -6.98% |
| CC(CNC(=O)Cn1ncc2c3ccccc3n(Cc3cccc(Cl)c3)c2c1=O)c1ccccc1 (stereo not drawn) | -0.821% |
| COCCNC(=O)CSc1nc(-c2ccc(F)cc2)[nH]c1-c1ccc(Cl)cc1 | 16.3% |
| CCOc1ccc(C(=O)Nc2ccc(S(=O)(=O)N(Cc3ccccc3)c3ccccc3)cc2)cc1 | -13.8% |
| COc1ccc(OC)c(C2CC(=O)N(c3cccc(C)c3)C3=C2C(=O)OC3)c1 (stereo not drawn) | 1.78% |
| O=C(COc1ccccc1)Nc1ccc(OCc2cc(=O)n3ccsc3n2)cc1 | 4.61% |
| CCN(CC)c1ccc(NC(=O)c2cnn3c(C(F)F)cc(-c4ccccc4)nc23)cc1 | -9.23% |
| COc1ccc(Cl)cc1NC(=O)C1CCN(c2ncnc3c2nc2n3CCCCC2)CC1 | 22.1% |
| O=C(CCC(=O)N1Cc2ccccc2Oc2ncccc21)NCc1ccccc1Cl | 2.52% |
| COc1ccc(C(c2c(O)cc(C)n(Cc3ccco3)c2=O)N2CCN(c3ccccc3)CC2)cc1 (stereo not drawn) | 1.99% |
| CCCCN(C)CCNC(=O)C1CCN(c2nc3ccc(CC)cc3s2)CC1 | -1.94% |
| CCCOc1ccc(-c2cccc(NS(=O)(=O)c3cc(OC)ccc3OC)c2)nn1 | 2.07% |
| COc1cccc(C(=O)NN2c3ccccc3CCc3ccccc32)c1 | active: 50.7% |
| O=C(NCc1ccc(Cl)cc1)c1cnc2sc(N3CCCCCC3)nn2c1=O | 4.6% |
| O=[N+]([O-])c1ccc(Sc2nnnn2-c2ccccc2)c(Cl)c1 | active: 35.5% |
| CC1CCc2c(sc(NC(=O)c3ccccc3)c2C(=O)Nc2ccccc2)C1 (stereo not drawn) | 0.952% |
| CCOC(=O)CSc1nc2ccc(NC(=O)COc3ccccc3)cc2s1 | -1.75% |
| COc1ccc(OC)c(CNc2ncnc3onc(-c4ccc(Cl)cc4)c23)c1 | -5.29% |
| Cc1ccccc1-n1nc(CO)c(C(=O)NCCc2ccccc2)n1 | -12.6% |
| COc1cccc(NC(=O)C(=O)NCC(c2cccnc2)N2CCN(c3ccccc3)CC2)c1 (stereo not drawn) | -15.4% |
